Where a name gives a salt, the structure may show the parent alone. This is one part of the list. The data scatter; read single values as rough.
test system: SUM159; experiment: ALDHbr (CSC) cell proportion score relative to DMSO vehicle (ratio to DMSO); breast (SUM159) / gastric (MKN45) / pancreatic (PANC1) / colon cancer lines; ALDHbr cells have high ALDH activity and are rich in cancer stem cells (CSC); higher = more CSC (ALDHbr) cells remaining; conditions: 10 µM; 72 h
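Further: High-content imaging of ALDEFLUOR-stained cells with Hoechst-labelled nuclei in 384-well plates, triplicate wells, scored as Z-score against 0.1% DMSO vehicle, negative meaning fewer ALDHbr cells.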

Row | SMILES | ALDHbr
1 | CC(=O)O[C@H]1C[C@@]2(C)[C@@H](C[C@@H](O)[C@H]3[C@@]4(C)CC[C@@H](O)[C@@H](C)[C@@H]4CC[C@@]32C)/C1=C(\CCC=C(C)C)C(=O)O [Fusidic acid sodium salt] | 0.66
2 | CC[N+](C)(C)c1cccc(O)c1 [Edrophonium chloride] | 0.921
3 | CO/N=C(\C(=O)N[C@@H]1C(=O)N2C(C(=O)OC(C)OC(C)=O)=C(COC(N)=O)CS[C@H]12)c1ccco1 (some centres undefined) [Cefuroxime axetil] | 1.06
4 | C[C@]12CC[C@H]3C(=CCc4cc(O)ccc43)[C@@H]1CCC2=O [Equilin] | 1.2
5 | C[C@@H]1C[C@H]2[C@@H]3C[C@H](F)C4=CC(=O)C=C[C@]4(C)[C@@]3(Cl)[C@@H](O)C[C@]2(C)[C@H]1C(=O)COC(=O)C(C)(C)C [Clocortolone pivalate] | 1.41
6 | Cc1ccc(NC(=O)c2ccc(CN3CCN(C)CC3)cc2)cc1Nc1nccc(-c2cccnc2)n1 [Imatinib] | 1.19
7 | Cc1c(O)cccc1C(=O)N[C@@H](CSc1ccccc1)[C@H](O)CN1C[C@H]2CCCC[C@H]2C[C@H]1C(=O)NC(C)(C)C [Nelfinavir mesylate] | 0.61
8 | CN[C@H]1CC[C@@H](c2ccc(Cl)c(Cl)c2)c2ccccc21 [Sertraline] | 0.348
9 | COc1c(N2C[C@@H]3CCCN[C@@H]3C2)c(F)cc2c(=O)c(C(=O)O)cn(C3CC3)c12 [Moxifloxacin] | 0.912
10 | CN1CCCC(n2nc(Cc3ccc(Cl)cc3)c3ccccc3c2=O)CC1 (centres undefined) [Azelastine hydrochloride] | 0.588
11 | Cc1[nH]c(=O)c(C#N)cc1-c1ccncc1 [Milrinone] | 1
12 | OC(CNCC(O)C1CCc2cc(F)ccc2O1)C1CCc2cc(F)ccc2O1 (centres undefined) [Nebivolol hydrochloride] | 1.13
13 | CCC(=O)OCC(=O)[C@@]1(OC(=O)CC)[C@H](C)C[C@H]2[C@H]3[C@H]([C@@H](O)C[C@@]21C)[C@@]1(C)C=CC(=O)C=C1C[C@H]3Cl [Alclometasone dipropionate] | 1.14
14 | CN(C)CCOC(c1ccccc1)c1ccccc1 [Diphenhydramine hydrochloride] | 0.927
15 | CCOc1ccc(Cc2nccc3cc(OCC)c(OCC)cc23)cc1OCC [Ethaverine hydrochloride] | 1.53

test system: T84; experiment: as above; conditions: 10 µM; 72 h

Row | SMILES | ALDHbr
16 | Cc1c(N(C)CS(=O)(=O)O)c(=O)n(-c2ccccc2)n1C [Dipyrone] | 0.917
17 | C=CCN1CCCC1CNC(=O)c1cc2nn[nH]c2cc1OC (centres undefined) [Alizapride hydrochloride] | 1.03
18 | CCCCOC(=O)c1ccc(O)cc1 [Butylparaben] | 0.96
19 | CC1CCc2cc(F)cc3c(=O)c(C(=O)O)cn1c23 (centres undefined) [Flumequine] | 1.09
20 | N[C@@H](C(=O)N[C@@H]1C(=O)N2C(C(=O)O)=C(Cl)CS[C@H]12)c1ccccc1 [Cefaclor hydrate] | 0.973
21 | CNCCCC1c2ccccc2C=Cc2ccccc21 [Protriptyline hydrochloride] | 0.689
22 | CN(C)CCC=C1c2ccccc2C=Cc2ccccc21 [Cyclobenzaprine hydrochloride] | 0.631
23 | COc1cc(C(=O)NC2CCCNC2)cc(OC)c1OC (centres undefined) [Troxipide] | 1.21
24 | CCCN(CCC)C(=O)C(CCC(=O)O)NC(=O)c1ccccc1 (centres undefined) [Proglumide] | 0.847
25 | CC(=O)Nc1c(I)c(NC(C)=O)c(I)c(C(=O)O)c1I [Diatrizoic acid dihydrate] | 1.04
26 | Cc1nc2n(c(=O)c1CCN1CCC(c3noc4cc(F)ccc34)CC1)CCCC2 [Risperidone] | 0.836
27 | Cc1cccc(N(C)C(=S)Oc2ccc3ccccc3c2)c1 [Tolnaftate] | 0.837
28 | COc1cc2c(cc1OC)C(=O)C(CC1CCN(Cc3ccccc3)CC1)C2 (centres undefined) [Donepezil hydrochloride] | 0.709
29 | CCCc1cc(=O)[nH]c(=S)[nH]1 [Propylthiouracil] | 0.92
30 | O=C1OC(CN2CCOCC2)CN1/N=C/c1ccc([N+](=O)[O-])o1 (centres undefined) [Furaltadone hydrochloride] | 0.349
31 | Cc1cccn2c(=O)c(-c3nnn[nH]3)cnc12 [Pemirolast potassium] | 0.773
32 | CCCCCCNC(=O)n1cc(F)c(=O)[nH]c1=O [Carmofur] | 0.428
33 | CN(C)CCn1nnnc1SCC1=C(C(=O)O)N2C(=O)[C@@H](NC(=O)Cc3csc(N)n3)[C@H]2SC1 [Cefotiam hydrochloride] | 0.915
34 | NC[C@@H]1O[C@H](O[C@H]2[C@@H](O)[C@H](O[C@@H]3[C@@H](O)[C@H](N)C[C@H](N)[C@H]3O[C@H]3O[C@H](CN)[C@@H](O)[C@H](O)[C@H]3N)O[C@@H]2CO)[C@H](N)[C@@H](O)[C@@H]1O [Neomycin sulfate] | 1.1
35 | NS(=O)(=O)c1cc2c(cc1C(F)(F)F)NCNS2(=O)=O [Hydroflumethiazide] | 0.986

Row | SMILES | ALDHbr
36 | N=C(N)c1ccc(OCCCCCOc2ccc(C(=N)N)cc2)cc1 [Pentamidine isethionate] | 0.645
37 | CC(C)Cc1ccc([C@H](C)C(=O)O)cc1 [S-(+)-ibuprofen] | 1.01
38 | CS(=O)(=O)OCCCCOS(C)(=O)=O [Busulfan] | 0.903
39 | CN(C(=O)CN(CCO)CC(=O)N(C)C(C)(C)Cc1ccccc1)C(C)(C)Cc1ccccc1 [Oxethazaine] | 0.0929
40 | CC(=O)O[C@H]1C[C@@]2(C)[C@@H](C[C@@H](O)[C@H]3[C@@]4(C)CC[C@@H](O)[C@@H](C)[C@@H]4CC[C@@]32C)/C1=C(\CCC=C(C)C)C(=O)O [Fusidic acid sodium salt] | 0.881
41 | CC[N+](C)(C)c1cccc(O)c1 [Edrophonium chloride] | 1.24
42 | CO/N=C(\C(=O)N[C@@H]1C(=O)N2C(C(=O)OC(C)OC(C)=O)=C(COC(N)=O)CS[C@H]12)c1ccco1 (some centres undefined) [Cefuroxime axetil] | 0.962
43 | C[C@]12CC[C@H]3C(=CCc4cc(O)ccc43)[C@@H]1CCC2=O [Equilin] | 0.909
44 | C[C@@H]1C[C@H]2[C@@H]3C[C@H](F)C4=CC(=O)C=C[C@]4(C)[C@@]3(Cl)[C@@H](O)C[C@]2(C)[C@H]1C(=O)COC(=O)C(C)(C)C [Clocortolone pivalate] | 0.918
45 | Cc1ccc(NC(=O)c2ccc(CN3CCN(C)CC3)cc2)cc1Nc1nccc(-c2cccnc2)n1 [Imatinib] | 0.807
46 | Cc1c(O)cccc1C(=O)N[C@@H](CSc1ccccc1)[C@H](O)CN1C[C@H]2CCCC[C@H]2C[C@H]1C(=O)NC(C)(C)C [Nelfinavir mesylate] | 0.424
47 | CN[C@H]1CC[C@@H](c2ccc(Cl)c(Cl)c2)c2ccccc21 [Sertraline] | 0.318
48 | COc1c(N2C[C@@H]3CCCN[C@@H]3C2)c(F)cc2c(=O)c(C(=O)O)cn(C3CC3)c12 [Moxifloxacin] | 1.14
49 | CN1CCCC(n2nc(Cc3ccc(Cl)cc3)c3ccccc3c2=O)CC1 (centres undefined) [Azelastine hydrochloride] | 0.805
50 | Cc1[nH]c(=O)c(C#N)cc1-c1ccncc1 [Milrinone] | 0.831
51 | OC(CNCC(O)C1CCc2cc(F)ccc2O1)C1CCc2cc(F)ccc2O1 (centres undefined) [Nebivolol hydrochloride] | 0.376
52 | CCC(=O)OCC(=O)[C@@]1(OC(=O)CC)[C@H](C)C[C@H]2[C@H]3[C@H]([C@@H](O)C[C@@]21C)[C@@]1(C)C=CC(=O)C=C1C[C@H]3Cl [Alclometasone dipropionate] | 1.05
53 | CN(C)CCOC(c1ccccc1)c1ccccc1 [Diphenhydramine hydrochloride] | 1.07
54 | CCOc1ccc(Cc2nccc3cc(OCC)c(OCC)cc23)cc1OCC [Ethaverine hydrochloride] | 0.739
